{"source": "the supplement of paper PMC8728848", "assay_in_all_cases": "glycan array binding signal (z-score within array); higher = stronger binding", "details_in_all_cases": "glycan notation: IUPAC condensed, linker removed", "key": {"Gal4S6S(b1-4)GlcNAc": {"molecular_target": "Gal4S6S(b1-4)GlcNAc", "procedure,_shortened": "(§1)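 The binding signal is a Z-score computed within each array. Data were drawn from 3228 arrays in the Consortium for Functional Glycomics database, restricted to those with a known protein sequence. Scores were averaged over arrays of the same protein sequence at different concentrations or buffers, and over linkers, and negative values can be taken as non-binding.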"}, "Gal6S(b1-4)Glc": {"molecular_target": "Gal6S(b1-4)Glc", "procedure,_shortened": "as §1"}, "Gal6S(b1-4)Glc6S": {"molecular_target": "Gal6S(b1-4)Glc6S", "procedure,_shortened": "as §1"}, "Gal6S(b1-4)GlcNAc": {"molecular_target": "Gal6S(b1-4)GlcNAc", "procedure,_shortened": "as §1"}, "GalNAc(a1-3)Gal": {"molecular_target": "GalNAc(a1-3)Gal", "procedure,_shortened": "as §1"}, "GalNAc(a1-3)GalNAc": {"molecular_target": "GalNAc(a1-3)GalNAc", "procedure,_shortened": "as §1"}, "[1]": {"molecular_target": "GalNAc(b1-3)Gal(a1-4)Gal(b1-4)GlcNAc", "procedure,_shortened": "as §1"}, "GalNAc(b1-3)GalNAc": {"molecular_target": "GalNAc(b1-3)GalNAc", "procedure,_shortened": "as §1"}, "GalNAc(b1-4)GlcNAc": {"molecular_target": "GalNAc(b1-4)GlcNAc", "procedure,_shortened": "as §1"}, "Glc(a1-4)Glc": {"molecular_target": "Glc(a1-4)Glc", "procedure,_shortened": "as §1"}, "Glc(a1-6)Glc(a1-6)Glc": {"molecular_target": "Glc(a1-6)Glc(a1-6)Glc", "procedure,_shortened": "as §1"}, "Glc(b1-4)Glc": {"molecular_target": "Glc(b1-4)Glc", "procedure,_shortened": "as §1"}, "Glc(b1-6)Glc": {"molecular_target": "Glc(b1-6)Glc", "procedure,_shortened": "as §1"}, "GlcA(b1-3)Gal": {"molecular_target": "GlcA(b1-3)Gal", "procedure,_shortened": "as §1"}, "GlcA(b1-6)Gal": {"molecular_target": "GlcA(b1-6)Gal", "procedure,_shortened": "as §1"}, "[2]": {"molecular_target": "GlcNAc(a1-3)Gal(b1-4)GlcNAc", "procedure,_shortened": "as §1"}, "[3]": {"molecular_target": "GlcNAc(a1-6)Gal(b1-4)GlcNAc", "procedure,_shortened": "as §1"}, "[4]": {"molecular_target": "GlcNAc(b1-2)Gal(b1-3)GalNAc", "procedure,_shortened": "as §1"}, "[5]": {"molecular_target": "GlcNAc(b1-2)Man(a1-3)[GlcNAc(b1-2)Man(a1-6)]Man(b1-4)GlcNAc(b1-4)GlcNAc", "procedure,_shortened": "as §1"}, "GlcNAc(b1-3)Gal": {"molecular_target": "GlcNAc(b1-3)Gal", "procedure,_shortened": "as §1"}, "[6]": {"molecular_target": "GlcNAc(b1-3)Gal(b1-3)GalNAc", "procedure,_shortened": "as §1"}, "GlcNAc(b1-3)Gal(b1-4)Glc": {"molecular_target": "GlcNAc(b1-3)Gal(b1-4)Glc", "procedure,_shortened": "as §1"}, "[7]": {"molecular_target": "GlcNAc(b1-3)Gal(b1-4)GlcNAc", "procedure,_shortened": "as §1"}, "[8]": {"molecular_target": "GlcNAc(b1-3)Gal(b1-4)GlcNAc(b1-3)Gal(b1-4)GlcNAc", "procedure,_shortened": "as §1"}, "GlcNAc(b1-3)GalNAc": {"molecular_target": "GlcNAc(b1-3)GalNAc", "procedure,_shortened": "as §1"}, "[9]": {"molecular_target": "GlcNAc(b1-3)[GlcNAc(b1-6)]Gal(b1-4)GlcNAc", "procedure,_shortened": "as §1"}, "[10]": {"molecular_target": "GlcNAc(b1-3)[GlcNAc(b1-6)]GalNAc", "procedure,_shortened": "as §1"}, "[11]": {"molecular_target": "GlcNAc(b1-3)[GlcNAc(b1-6)]GlcNAc(b1-4)GlcNAc", "procedure,_shortened": "as §1"}, "[12]": {"molecular_target": "GlcNAc(b1-4)Gal(b1-4)GlcNAc", "procedure,_shortened": "as §1"}, "[13]": {"molecular_target": "GlcNAc(b1-4)GlcNAc(b1-4)GlcNAc", "procedure,_shortened": "as §1"}, "[14]": {"molecular_target": "GlcNAc(b1-4)GlcNAc(b1-4)GlcNAc(b1-4)GlcNAc(b1-4)GlcNAc", "procedure,_shortened": "as §1"}, "[15]": {"molecular_target": "GlcNAc(b1-4)GlcNAc(b1-4)GlcNAc(b1-4)GlcNAc(b1-4)GlcNAc(b1-4)GlcNAc", "procedure,_shortened": "as §1"}, "[16]": {"molecular_target": "GlcNAc(b1-4)[GlcNAc(b1-6)]GalNAc", "procedure,_shortened": "as §1"}, "[17]": {"molecular_target": "GlcNAc(b1-6)Gal(b1-4)GlcNAc", "procedure,_shortened": "as §1"}, "GlcNAc(b1-6)GalNAc": {"molecular_target": "GlcNAc(b1-6)GalNAc", "procedure,_shortened": "as §1"}, "Kdn(a2-3)Gal(b1-3)GlcNAc": {"molecular_target": "Kdn(a2-3)Gal(b1-3)GlcNAc", "procedure,_shortened": "as §1"}, "Kdn(a2-3)Gal(b1-4)GlcNAc": {"molecular_target": "Kdn(a2-3)Gal(b1-4)GlcNAc", "procedure,_shortened": "as §1"}, "[18]": {"molecular_target": "Man(a1-2)Man(a1-2)Man(a1-3)Man", "procedure,_shortened": "as §1"}, "[19]": {"molecular_target": "Man(a1-2)Man(a1-2)Man(a1-6)[Man(a1-3)]Man", "procedure,_shortened": "as §1"}, "Man(a1-2)Man(a1-3)Man": {"molecular_target": "Man(a1-2)Man(a1-3)Man", "procedure,_shortened": "as §1"}, "[20]": {"molecular_target": "Man(a1-2)Man(a1-3)[Man(a1-2)Man(a1-6)]Man", "procedure,_shortened": "as §1"}, "[21]": {"molecular_target": "Man(a1-2)Man(a1-3)[Man(a1-2)Man(a1-6)]Man(a1-6)[Man(a1-2)Man(a1-2)Man(a1-3)]Man(b1-4)GlcNAc(b1-4)GlcNAc", "procedure,_shortened": "as §1"}, "[22]": {"molecular_target": "Man(a1-2)Man(a1-3)[Man(a1-6)]Man(a1-6)[Man(a1-2)Man(a1-3)]Man(b1-4)GlcNAc(b1-4)GlcNAc", "procedure,_shortened": "as §1"}, "[23]": {"molecular_target": "Man(a1-2)Man(a1-6)[Man(a1-3)]Man(a1-6)[Man(a1-2)Man(a1-2)Man(a1-3)]Man(b1-4)GlcNAc(b1-4)GlcNAc", "procedure,_shortened": "as §1"}, "Man(a1-3)[Man(a1-6)]Man": {"molecular_target": "Man(a1-3)[Man(a1-6)]Man", "procedure,_shortened": "as §1"}}, "note": "The other results are listed elsewhere or left out.", "data": [{"binder": "MPA (Maclura pomifera) (protein) GVTFDDGAYTGIREINFEYNSETAIGGLRVTYDLNGMPFVAEDHKSFITGFKPVKISLEFPSEYIVEVSGYVGKVEGYTVIRSLTFKTNKQTYGPYGVTNGTPFSLPIENGLIVGFKGSIGYWLDYFSIYLSLNGPNGKSQSIIVGPWGDRVTN", "values": [{"measurement": "glycan array binding signal (z-score)", "setting": "Gal4S6S(b1-4)GlcNAc", "result": -0.221}, {"measurement": "glycan array binding signal (z-score)", "setting": "Gal6S(b1-4)Glc", "result": -0.234}, {"measurement": "glycan array binding signal (z-score)", "setting": "Gal6S(b1-4)Glc6S", "result": -0.223}, {"measurement": "glycan array binding signal (z-score)", "setting": "Gal6S(b1-4)GlcNAc", "result": -0.219}, {"measurement": "glycan array binding signal (z-score)", "setting": "GalNAc(a1-3)Gal", "result": -0.205}, {"measurement": "glycan array binding signal (z-score)", "setting": "GalNAc(a1-3)GalNAc", "result": -0.212}, {"measurement": "glycan array binding signal (z-score)", "setting": "[1]", "result": -0.241}, {"measurement": "glycan array binding signal (z-score)", "setting": "GalNAc(b1-3)GalNAc", "result": 6.31}, {"measurement": "glycan array binding signal (z-score)", "setting": "GalNAc(b1-4)GlcNAc", "result": -0.232}, {"measurement": "glycan array binding signal (z-score)", "setting": "Glc(a1-4)Glc", "result": -0.239}, {"measurement": "glycan array binding signal (z-score)", "setting": "Glc(a1-6)Glc(a1-6)Glc", "result": -0.243}, {"measurement": "glycan array binding signal (z-score)", "setting": "Glc(b1-4)Glc", "result": -0.238}, {"measurement": "glycan array binding signal (z-score)", "setting": "Glc(b1-6)Glc", "result": -0.239}, {"measurement": "glycan array binding signal (z-score)", "setting": "GlcA(b1-3)Gal", "result": -0.245}, {"measurement": "glycan array binding signal (z-score)", "setting": "GlcA(b1-6)Gal", "result": -0.238}, {"measurement": "glycan array binding signal (z-score)", "setting": "[2]", "result": -0.25}, {"measurement": "glycan array binding signal (z-score)", "setting": "[3]", "result": -0.14}, {"measurement": "glycan array binding signal (z-score)", "setting": "[4]", "result": 5.63}, {"measurement": "glycan array binding signal (z-score)", "setting": "[5]", "result": -0.246}, {"measurement": "glycan array binding signal (z-score)", "setting": "GlcNAc(b1-3)Gal", "result": 0.265}, {"measurement": "glycan array binding signal (z-score)", "setting": "[6]", "result": 3.46}, {"measurement": "glycan array binding signal (z-score)", "setting": "GlcNAc(b1-3)Gal(b1-4)Glc", "result": -0.241}, {"measurement": "glycan array binding signal (z-score)", "setting": "[7]", "result": -0.245}, {"measurement": "glycan array binding signal (z-score)", "setting": "[8]", "result": -0.241}, {"measurement": "glycan array binding signal (z-score)", "setting": "GlcNAc(b1-3)GalNAc", "result": 6.85}, {"measurement": "glycan array binding signal (z-score)", "setting": "[9]", "result": -0.245}, {"measurement": "glycan array binding signal (z-score)", "setting": "[10]", "result": -0.244}, {"measurement": "glycan array binding signal (z-score)", "setting": "[11]", "result": -0.239}, {"measurement": "glycan array binding signal (z-score)", "setting": "[12]", "result": -0.246}, {"measurement": "glycan array binding signal (z-score)", "setting": "[13]", "result": -0.246}, {"measurement": "glycan array binding signal (z-score)", "setting": "[14]", "result": -0.253}, {"measurement": "glycan array binding signal (z-score)", "setting": "[15]", "result": -0.246}, {"measurement": "glycan array binding signal (z-score)", "setting": "[16]", "result": -0.245}, {"measurement": "glycan array binding signal (z-score)", "setting": "[17]", "result": -0.229}, {"measurement": "glycan array binding signal (z-score)", "setting": "GlcNAc(b1-6)GalNAc", "result": -0.237}, {"measurement": "glycan array binding signal (z-score)", "setting": "Kdn(a2-3)Gal(b1-3)GlcNAc", "result": -0.244}, {"measurement": "glycan array binding signal (z-score)", "setting": "Kdn(a2-3)Gal(b1-4)GlcNAc", "result": -0.244}, {"measurement": "glycan array binding signal (z-score)", "setting": "[18]", "result": -0.242}, {"measurement": "glycan array binding signal (z-score)", "setting": "[19]", "result": -0.242}, {"measurement": "glycan array binding signal (z-score)", "setting": "Man(a1-2)Man(a1-3)Man", "result": -0.235}, {"measurement": "glycan array binding signal (z-score)", "setting": "[20]", "result": -0.247}, {"measurement": "glycan array binding signal (z-score)", "setting": "[21]", "result": -0.238}, {"measurement": "glycan array binding signal (z-score)", "setting": "[22]", "result": -0.244}, {"measurement": "glycan array binding signal (z-score)", "setting": "[23]", "result": -0.236}, {"measurement": "glycan array binding signal (z-score)", "setting": "Man(a1-3)[Man(a1-6)]Man", "result": -0.25}]}]}
